{"source": "patent US7384907B2", "about": "“Method of treating infection with ABl tyrosine kinase inhibitors” (Duke University, priority 2002, dated 2008)", "key": {"[1]": {"test_system": "Shigella flexneri 2457T", "assay": "Gentamicin protection assay, Shigella flexneri 2457T uptake into mouse embryo fibroblasts (Abl/Arg or Null)", "settings": "Abl/Arg cells, 10 μM, p value=0.0243"}, "[2]": {"test_system": "Shigella flexneri ATCC serotype 2a", "assay": "Gentamicin protection assay, Shigella flexneri ATCC serotype 2a uptake into Abl/Arg mouse embryo fibroblasts"}}}
{"molecule": "Cc1ccc(NC(=O)c2ccc(CN3CCN(C)CC3)cc2)cc1Nc1nccc(-c2cccnc2)n1", "note": "[STI571]", "values": [{"measurement": "Reduction in uptake of Shigella flexneri 2457T", "setting": "[1]", "result": 60, "unit": "%"}, {"measurement": "Level of Shigella uptake", "setting": "[2]; Abl/Arg MEFs, 5 μM", "result": "reduced to that of the Null MEFs"}, {"measurement": "Ability of Abl/Arg cells to be infected with Shigella", "setting": "[2]; Abl/Arg MEFs, increasing concentrations (0-10 μM) of STI571", "result": "dose-dependent decrease"}, {"measurement": "inhibition at 10 µM", "setting": "[2]; Shigella flexneri, Fibroblast, in Mus musculus, read-out: Inhibition of internalization compared to untreated cells", "result": 98, "unit": "%"}]}
